According to the supplement of paper PMC3334620:
The full ranking holds about 33,000 sequences; the median of “E-score (-0.5 to 0.5)” is about -0.043, and the highest 2% start at about 0.37. The list shows a part of the results.

Target: T1, Upc2 (UniProt Q12151)
T1 sequence: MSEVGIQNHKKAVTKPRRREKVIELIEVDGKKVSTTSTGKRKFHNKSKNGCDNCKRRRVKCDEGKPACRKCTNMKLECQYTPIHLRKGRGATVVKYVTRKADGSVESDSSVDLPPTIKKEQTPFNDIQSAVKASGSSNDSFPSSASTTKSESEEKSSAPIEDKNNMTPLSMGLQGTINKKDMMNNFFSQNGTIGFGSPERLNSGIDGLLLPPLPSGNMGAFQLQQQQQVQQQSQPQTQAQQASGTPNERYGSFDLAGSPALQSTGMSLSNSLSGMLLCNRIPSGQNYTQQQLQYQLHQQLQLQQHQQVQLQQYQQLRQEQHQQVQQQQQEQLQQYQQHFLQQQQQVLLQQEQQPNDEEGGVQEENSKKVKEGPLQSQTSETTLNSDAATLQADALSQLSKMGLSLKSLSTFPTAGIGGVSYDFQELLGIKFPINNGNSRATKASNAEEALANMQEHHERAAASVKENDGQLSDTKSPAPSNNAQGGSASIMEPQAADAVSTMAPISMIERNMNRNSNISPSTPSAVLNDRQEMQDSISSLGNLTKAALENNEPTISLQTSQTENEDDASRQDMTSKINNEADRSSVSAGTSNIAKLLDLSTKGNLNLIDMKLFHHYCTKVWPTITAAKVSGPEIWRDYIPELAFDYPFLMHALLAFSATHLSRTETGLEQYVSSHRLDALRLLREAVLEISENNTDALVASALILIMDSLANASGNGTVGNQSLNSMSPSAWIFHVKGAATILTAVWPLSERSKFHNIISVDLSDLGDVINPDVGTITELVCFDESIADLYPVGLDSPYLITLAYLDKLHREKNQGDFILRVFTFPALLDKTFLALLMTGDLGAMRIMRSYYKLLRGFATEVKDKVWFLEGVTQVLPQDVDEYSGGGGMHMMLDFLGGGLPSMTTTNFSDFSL
Experiment: PBM E-score (8-mer binding enrichment) (E-score (-0.5 to 0.5)); higher = stronger / more preferred TF binding; most listed sequences are background and not binding sites
Conditions: protein concentration: 200 nM; construct: GST-full length
Procedure, shortened: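 E-scores (a modified Wilcoxon-Mann-Whitney statistic) were assigned by the Universal PBM Analysis Suite to every ungapped eight-base word pooled with its reverse complement. The input came from universal all-10-mer Agilent arrays made double-stranded by primer extension and probed with GST-tagged yeast transcription factors at about 100-200 nM. Fluorescent anti-GST detected bound protein, and masliner normalised the scans.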

Sequence	PBM E-score
AGTATTAC	0.0661
AACGTGGC	0.111
CCTGGCTA	0.00786
CACAAGGC	-0.308
CAGGAGTC	-0.207
CCCTCAGG	-0.133
ATGATGTC	-0.175
ACTGAAAT	-0.0489
AGTTACTG	-0.223
AGAAATGG	-0.159
CACATGTG	0.00975
CATCAACA	-0.00151
AGACTGGA	-0.172
AATGTCCG	0.101
TGAGCTCA	0.043
GAATGTCC	-0.167
AAGGATCA	-0.181
ATGAAGAC	-0.22
AACTTTAA	-0.00093
TAGCTGGA	-0.18
GAAAGCCA	-0.231
CTGTCACA	-0.0745
AAAAATTA	0.0373
ATGCGTGC	0.03
ATGAGTTG	-0.0822

Sequence	PBM E-score
CGTACGCC	0.312
GGGAGCTA	-0.162
ATAAGGCA	-0.107
CTCGTGGA	0.0655
GAGCGTGA	-0.108
CGAAAAGA	0.0982
ATGTAGAA	-0.229
AAATCGCC	-0.149
CAATCAAG	-0.0362
CACAGTTA	-0.105
ACGATACC	0.349
CGTGTCTC	0.0266
AAGCAGAT	-0.211
CGTACACA	0.418
TGCGATAA	0.0773
ATGTCACC	-0.0774
TGCAAACA	-0.0888
ACTAGGCG	-0.0496
CGAATCGA	0.16
CGTTGCTC	0.212
ATCCCGCG	0.0498
GTTGTAGA	0.106
ATGCCCGG	-0.125
AAAATCCT	0.0605
CCTGGATA	-0.0211

Sequence	PBM E-score
CCGCCGCG	0.0882
ATCCTTTG	-0.0839
ACCTTTTA	0.118
GATCGGCC	-0.0313
GTATGCAC	0.103
CACTTTTC	-0.0559
ACATCGCG	0.0364
TAAGTTAA	-0.0413
GATTGTGC	-0.0348
CCTGCCGC	-0.0126
TCGGTAAA	0.288
ACCAGCTC	-0.0873
CGTCAACG	0.169
AGTCTCCG	-0.0419
GCTGCCAC	-0.242
AAGGACAT	0.0482
GAAAAATA	0.0817
ACTGACGA	0.0719
AGATACTC	-0.065
AACACTCA	0.0647
AGGAGCCA	-0.101
TGGTGGAA	-0.00349
ACAGGCCG	-0.129
GAGTACTC	-0.0593
GCAGTGTA	0.115

Sequence	PBM E-score
ACCAAAGT	-0.0883
AACCAGTG	-0.154
CGAAGCAG	0.00955
TTCCTCAA	-0.177
ACAGCTGG	-0.0318
GTAAAAGA	0.256
GAAAGCGC	-0.0722
GAACCTTC	-0.112
AGATTCGC	0.0823
ATACCACG	0.0605
ATGGCGTG	-0.0735
CCTAGACG	0.0559
CTAATTTA	0.154
CACTGCAG	-0.19
CGTGTACA	0.158
CACTTTAA	0.0393
CTGCGGAA	-0.172
AGCGCGAA	0.0369
GATATTCA	-0.0996
AATTAGCT	0.0368
GCCCCCCC	-0.12
CTCTCACC	-0.149
ACAGCCCT	-0.257
CGACATCG	0.142
GTTATCTA	0.0623

Sequence	PBM E-score
GACCAGCA	-0.252
AACACCGT	0.141
TCCTTGAA	-0.0441
AGGGTTCG	0.0266
TATTGACA	-0.0311
ACGGATAT	0.219
CCAGGTCC	-0.0943
CGATAGCG	0.0616
CCAGCGGA	-0.0985
ACTAAATA	0.0972
ACGCATGC	0.15
CCCTCTTA	0.0709
AAGGCTTG	-0.113
CAACGTAC	0.237
CCAAATAC	0.0506
ACAACACT	0.0862
ACGCCGTA	0.354
GGATGTTA	-0.0267
CTCGGAAA	0.229
CTTGCAGA	-0.17
AGGGGTAT	-0.216
CTATAATA	-0.055
CAAGCATA	-0.091
GTCGCGGA	-0.0193
AACATAGC	-0.212

Sequence	PBM E-score
GCATAGGC	-0.139
CACATCCA	0.00264
GCTTCGGA	0.102
GATTATGA	-0.0808
CAAGTTCA	-0.0346
CCGTTCGA	0.13
CGCGGCTC	0.0204
CTGCAGAA	0.00637
CATGGCGG	-0.203
ATACAGAA	0.0139
CCGTGGCG	-0.122
CCTTAAAG	-0.0314
AGCTGGTG	0.0458
CATTTAGG	-0.285
CATAACCC	-0.127
CTTGCAAA	0.0329
GAATTGTA	0.0594
AGAAACAA	-0.0188
CAGATGCA	-0.205
AACCACGA	-0.102
GTTGGGTA	0.0587
GGAGGCTA	-0.176
CCCAAGGC	-0.0648
ATAATCGC	0.069
ACATTAAG	-0.0138

Sequence	PBM E-score
CCCGCCGA	-0.0993
ACCGGTTA	0.118
ACCACGGG	-0.109
AATTTTAC	0.215
GTGTTATA	0.104
CCAAAAAG	-0.218
ATCGCATG	-0.00273
AATGTGGC	0.0351
AAGATACT	-0.0277
ACCCTCAG	-0.26
GCGAGCGA	0.226
CGTATAAG	0.481
ATCTGACG	-0.271
ACGACAGC	0.336
AATAGATT	-0.0588
CGATTAAG	0.257
CACCCTAG	-0.203
ATAATGTG	0.0114
AGTTGCGG	-0.0153
ACGCCCTA	-0.111
AGCCGTGA	-0.0983
ACAGTTAA	0.116
ATCCAGAC	-0.251
GCACCAAA	-0.0527
CTTAGTAC	0.0714

Sequence	PBM E-score
AGAGGTGA	-0.0822
AGTTAATC	-0.0362
AGTCAACG	0.0316
ATGGAACG	0.34
GAAAACAC	-0.031
CCAAGTTC	-0.108
GTGTTCCA	-0.13
CGGCCCTA	-0.218
GCCGCTCA	-0.283
GTAAACTA	0.172
GCACCAGC	-0.118
CAACGAAA	0.221
ACGGGAGG	0.0652
GTTAATCA	0.0984
ATTAGGAC	0.066
TCTTACAA	0.0124
ACCACCCT	-0.0594
CTATGGGC	-0.184
ATCGGCAC	-0.09
CCCCGCGC	-0.0172
GCCCGGGA	-0.146
AACACTTC	0.00636
CGTACCGC	0.416
ACACGGGA	-0.129
AACCGACA	0.232

Sequence	PBM E-score
CAATTTGG	-0.104
GCTTGTCA	0.0148
CTCCCACA	-0.221
CACGTATG	0.236
CGGAATCA	-0.104
GGCCTTCA	-0.161
AAATGGAG	-0.101
CATAACTC	-0.0677
CAGGCAAC	-0.258
AGCCTACC	-0.183
CGTGTCGA	-0.0271
GCAATAAA	0.117
AATATACG	0.465
CGGCTAGA	0.0143
ACCGGACA	-0.141
CAAAGCCC	-0.118
AGGAGTTG	0.0212
ACGTGGAC	-0.0272
AAGCATAT	-0.0288
